About 2,200 (0.71%) of roughly 310,000 compounds showed an effect of 50% or more. The effect is printed as a negative number. The list shows a part of the results.
The compounds below were run against human ether-à-go-go-related gene (hERG) potassium channel (human, UniProt Q12809) (assay: primary screen, population patch clamp on CHO cells stably expressing hERG).
human ether-à-go-go-related gene (hERG) potassium channel, sequence (Q12809 whole entry, looked up): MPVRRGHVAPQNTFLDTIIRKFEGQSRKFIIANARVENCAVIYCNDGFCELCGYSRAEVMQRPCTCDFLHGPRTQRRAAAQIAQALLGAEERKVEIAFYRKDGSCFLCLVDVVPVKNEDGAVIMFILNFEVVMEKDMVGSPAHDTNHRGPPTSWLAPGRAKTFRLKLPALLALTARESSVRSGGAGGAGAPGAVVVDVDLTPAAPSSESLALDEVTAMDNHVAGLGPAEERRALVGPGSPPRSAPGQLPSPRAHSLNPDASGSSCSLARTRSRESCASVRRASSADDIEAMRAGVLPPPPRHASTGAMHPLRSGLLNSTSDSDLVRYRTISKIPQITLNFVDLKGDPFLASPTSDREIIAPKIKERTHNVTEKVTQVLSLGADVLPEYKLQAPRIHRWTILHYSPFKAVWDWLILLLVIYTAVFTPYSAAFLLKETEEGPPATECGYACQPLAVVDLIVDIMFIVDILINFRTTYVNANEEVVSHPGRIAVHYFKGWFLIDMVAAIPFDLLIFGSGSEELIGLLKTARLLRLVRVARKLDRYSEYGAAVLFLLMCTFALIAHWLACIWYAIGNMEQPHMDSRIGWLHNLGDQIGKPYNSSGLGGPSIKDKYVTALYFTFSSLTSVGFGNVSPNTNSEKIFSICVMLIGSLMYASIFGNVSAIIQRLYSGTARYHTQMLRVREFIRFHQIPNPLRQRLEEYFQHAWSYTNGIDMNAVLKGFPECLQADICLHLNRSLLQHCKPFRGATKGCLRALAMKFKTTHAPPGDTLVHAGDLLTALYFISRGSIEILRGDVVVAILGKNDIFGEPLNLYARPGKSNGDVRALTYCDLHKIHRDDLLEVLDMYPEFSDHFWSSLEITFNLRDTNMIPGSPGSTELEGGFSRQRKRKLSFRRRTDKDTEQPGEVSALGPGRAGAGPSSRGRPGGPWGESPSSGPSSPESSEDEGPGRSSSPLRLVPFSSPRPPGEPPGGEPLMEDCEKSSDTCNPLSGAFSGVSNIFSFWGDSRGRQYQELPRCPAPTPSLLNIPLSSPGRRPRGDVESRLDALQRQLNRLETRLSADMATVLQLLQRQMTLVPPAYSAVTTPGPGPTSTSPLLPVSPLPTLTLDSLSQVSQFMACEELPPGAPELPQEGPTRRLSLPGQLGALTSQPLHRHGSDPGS
With `O=C(OCc1c(Cl)cccc1Cl)c1cccnc1` the “hERG current change (%, negative = inhibition) at 1uM” value was 5.84%. In the case of `O=C(COC(=O)c1ccc2c(c1)C(=O)N(CCc1ccccc1)C2=O)Nc1ccc(OC(F)F)cc1`, the “hERG current change (%, negative = inhibition) at 1uM” value is reported as 12.1%. With `CC(C)(C)c1ccc(C(=O)C2CCCN(C(=O)CN3CCCC3=O)C2)cc1` (centres unmarked) the “hERG current change (%, negative = inhibition) at 1uM” value was 3.61%. For `COc1ccc(OC)c(NC(=O)c2cc(S(=O)(=O)NCc3ccco3)ccc2F)c1`, the “hERG current change (%, negative = inhibition) at 1uM” value was 13.1%. In the case of `O=C(CSc1nnc2ccccn12)NCc1ccc2c(c1)OCO2`, the “hERG current change (%, negative = inhibition) at 1uM” value is reported as 10.2%. For `COc1ccc(NC(=O)/C(C#N)=C\c2ccc(-c3cccc(C(=O)O)c3C)o2)cc1`, the “hERG current change (%, negative = inhibition) at 1uM” value was 1.64%. For `Cc1n[nH]c(=O)c2c(NC(=O)COC(=O)c3ncc(Cl)c(Cl)c3Cl)oc(C)c12`, the “hERG current change (%, negative = inhibition) at 1uM” value was 12.8%. `O=C(CN1CCN(c2ccc(F)cc2)CC1)N(C1CCCC1)C1CCS(=O)(=O)C1` (centres unmarked) was tested, and the “hERG current change (%, negative = inhibition) at 1uM” value was -9.75%. For `Cc1cc(C)n(C(C)CNC(=O)c2ccc3c(c2)OCO3)n1` (centres unmarked), the “hERG current change (%, negative = inhibition) at 1uM” value was 16.5%. `C#Cc1ccc(CN2CCCC(C(=O)Nc3ccccc3Oc3cccnc3)C2)cc1` (centres unmarked) was tested, and the “hERG current change (%, negative = inhibition) at 1uM” value was -7.65%. For `O=C(N[C@@H](c1ccccc1)[C@@H]1C[C@H]1C(=O)NCc1ccccn1)OCc1ccccc1`, the “hERG current change (%, negative = inhibition) at 1uM” value was 1.59%. With `CCOc1ccc2nc(C)cc(Nc3cccc([N+](=O)[O-])c3)c2c1.Cl` the “hERG current change (%, negative = inhibition) at 1uM” value was 1.88%. In the case of `COc1ccc(NC(=S)N(CCc2c(C)[nH]c3ccc(C)cc23)Cc2ccco2)cc1`, the “hERG current change (%, negative = inhibition) at 1uM” value is reported as 6.5%. In the case of `CCN(CCNC(=O)CN(C)S(=O)(=O)c1cccc2nsnc12)c1ccccc1`, the “hERG current change (%, negative = inhibition) at 1uM” value is reported as -9.91%. For `CCOC(=O)c1c(C)[nH]c(C(=O)C(C)Cl)c1C` (centres unmarked), the “hERG current change (%, negative = inhibition) at 1uM” value was 7.99%. For `CC(C)Cc1cc(CN2CCC(CO)(Cc3ccccc3)CC2)[nH]n1`, the “hERG current change (%, negative = inhibition) at 1uM” value was -42.9%. In the case of `O=C(CNCC1CCCCC1)Nc1ccccc1N1CCCCC1.O=C(O)C(=O)O`, the “hERG current change (%, negative = inhibition) at 1uM” value is reported as 4.57%. In the case of `O=C(CCNC(=O)C1CCN(S(=O)(=O)c2ccc(F)cc2)CC1)NCc1ccc(Cl)cc1`, the “hERG current change (%, negative = inhibition) at 1uM” value is reported as 19.5%. In the case of `COC(=O)C1=C(C)N(CCCC(=O)O)C(=O)NC1c1cccc2ccccc12` (centres unmarked), the “hERG current change (%, negative = inhibition) at 1uM” value is reported as 12.7%. For `O=C(O)c1ccccc1COc1ccccc1Cl`, the “hERG current change (%, negative = inhibition) at 1uM” value was 10.3%. In the case of `N/C(=N\OC(=O)Cc1cccs1)c1ccc(Br)cc1`, the “hERG current change (%, negative = inhibition) at 1uM” value is reported as 10%. With `CCN(C(=S)Nc1ccc(Oc2ccccc2)cc1)c1ccccc1` the “hERG current change (%, negative = inhibition) at 1uM” value was 21.1%. `CC(C)C1O/C(=N/C(=O)Nc2ccc(Cl)c(Cl)c2)NC1=O` (centres unmarked) was tested, and the “hERG current change (%, negative = inhibition) at 1uM” value was 3.43%. `NC(=O)c1cc(N=Nc2c(N)[nH]n(-c3c(Cl)cc(Cl)cc3Cl)c2=O)ccc1Cl` was tested, and the “hERG current change (%, negative = inhibition) at 1uM” value was 12%. With `COc1cc(/C=C2\C(=N)N3N=C(S(C)(=O)=O)SC3=NC2=O)ccc1OCCOc1ccc(C)cc1` the “hERG current change (%, negative = inhibition) at 1uM” value was 14.1%. For `CSc1ccccc1C(=O)NCCc1ccc(S(=O)(=O)N2CCCCC2)cc1`, the “hERG current change (%, negative = inhibition) at 1uM” value was 3.55%. With `Cc1ccc(C2CC(c3ccco3)n3ncnc3N2)cc1` (centres unmarked) the “hERG current change (%, negative = inhibition) at 1uM” value was 4.7%. With `COc1cccc(-n2cnc3sc4c(c3c2=O)CCC4)c1` the “hERG current change (%, negative = inhibition) at 1uM” value was -3.68%. In the case of `O=C(NC(=S)Nc1ccc2oc(=O)ccc2c1)c1cccc(Cl)c1`, the “hERG current change (%, negative = inhibition) at 1uM” value is reported as 5.3%. In the case of `CC1CC(C)CN(C(=S)NC2CCCCC2)C1` (centres unmarked), the “hERG current change (%, negative = inhibition) at 1uM” value is reported as 1.15%. With `Cc1ccc(NC(=O)Nc2cccc(Cl)c2)c(C(=O)O)c1` the “hERG current change (%, negative = inhibition) at 1uM” value was 15.5%. For `CC(C)(CCC(=S)N1CCOCC1)C1CCCCC1`, the “hERG current change (%, negative = inhibition) at 1uM” value was 13.4%. `Cc1nc2ccccc2cc1C(=O)N/N=C/c1ccccc1[N+](=O)[O-]` was tested, and the “hERG current change (%, negative = inhibition) at 1uM” value was 11%. For `C=CCc1ccc(OCc2ccc(C(=O)OC)o2)c(OC)c1`, the “hERG current change (%, negative = inhibition) at 1uM” value was 3.36%. With `CC(=O)c1ccc(N2CCN(C(=O)C3CCN(S(=O)(=O)c4ccc5c(c4)CC(C)N5C(C)=O)CC3)CC2)cc1` (centres unmarked) the “hERG current change (%, negative = inhibition) at 1uM” value was 15.7%. In the case of `O=C(c1ccc(S(=O)(=O)c2ccccc2)cc1)N1CCc2ccccc2C1`, the “hERG current change (%, negative = inhibition) at 1uM” value is reported as 13%. `CCOC(=O)Oc1ccc2c(c1)C(C)=CC(C)(C)N2C(=O)OCC` was tested, and the “hERG current change (%, negative = inhibition) at 1uM” value was 12.4%. For `COc1ccc(N=NC2C(=O)N(c3ccccc3)N=C2C)cc1` (centres unmarked), the “hERG current change (%, negative = inhibition) at 1uM” value was 22.3%. For `NC(=O)Nc1ccc(F)cc1`, the “hERG current change (%, negative = inhibition) at 1uM” value was -3.77%. With `Cc1ccc(SCc2cc(=O)n3ccsc3n2)c(C)c1` the “hERG current change (%, negative = inhibition) at 1uM” value was -7.01%. With `CCOC(=O)C1=NOC(CNC(=O)c2c(-c3ccccc3Cl)noc2C)C1` (centres unmarked) the “hERG current change (%, negative = inhibition) at 1uM” value was 16.3%. `CCN(C(=O)CN1C(=O)c2ccc([N+](=O)[O-])cc2C1=O)C1CCCCC1` was tested, and the “hERG current change (%, negative = inhibition) at 1uM” value was 6.36%. For `O=C1C(Oc2ccccc2)C(c2cccs2)N1Cc1ccc2c(c1)OCO2` (centres unmarked), the “hERG current change (%, negative = inhibition) at 1uM” value was 4.75%. In the case of `O=S(=O)(c1ccc(Cl)cc1)c1cnc2ccccc2n1`, the “hERG current change (%, negative = inhibition) at 1uM” value is reported as 13.7%.

Source: PMC4336329 (PLoS ONE, 2015)
